Several values for one entry are separate records, joined by “and”; a condition that tells them apart may be missing. Equal values may be shown once.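 Method: 48-hour compound exposure of cells in 96-well plates, five concentrations, linear interpolation of endpoints. GI50: concentration for 50% inhibition of growth.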 Activity calls are given as the source filed them. No stated cut-off is given here; in the data, active = GI50 up to about 1.1 µM and inactive = higher.
test system: NCI-H322M; assay: NCI anticancer screen, dose series, 48 h

Row | Compound | GI50
1 | Cn1c(=O)c2c(nc(C(=N)SCC(=O)O)n2C)n(C)c1=O | inactive: 44.9 µM
2 | O=C1/C(=C/c2ccc(Cl)c(Cl)c2)CNC/C1=C\c1ccc(Cl)c(Cl)c1 | inactive: 17.9 µM
3 | Cc1cc(O)nc(/N=C(\N)Nc2ccc(Cl)cc2)n1 | inactive: > 100 µM
4 | COc1cc(OC)c(OC)cc1/C=C1\C=Cc2ccccc21 | inactive: 24.4 µM
5 | COC1OC(C(=O)CP(=O)(OC)OC)C(OCc2ccccc2)C(OCc2ccccc2)C1OCc1ccccc1 (configuration not stated) | inactive: 16 µM and inactive: 16.9 µM
6 | COc1cccc(C2C(C(=O)O)=C(CO)Oc3cc4c(cc32)OCO4)c1OC (configuration not stated) | inactive: > 100 µM
7 | CC(=O)/N=C1\NC(=O)/C(=C/c2ccccc2Cl)N1C | inactive: > 100 µM
8 | COc1cc(/C=C/C2=NN(c3cccc(S(=O)(=O)O)c3)C3(C2)SCC(=O)N3c2nc3ccccc3s2)cc(OC)c1OC (configuration not stated) | inactive: 85.1 µM
9 | CCOC(=O)/C=C/c1c[nH]c(=O)[nH]c1=O | inactive: > 75 µM
10 | O=C(O)c1cc2c(cc1CC(Cc1ccccc1)C(=O)O)CCC2 (configuration not stated) | inactive: > 100 µM
11 | CCOC(=O)C(NC(=O)c1ccccc1)(Nc1ccc(S(=O)(=O)Nc2ncccn2)cc1)C(F)(F)F (configuration not stated) | inactive: > 100 µM
12 | N#Cc1c(-c2ccccc2)c(/N=N/c2ccc(F)cc2)c(=O)n2c1[nH]c1ccccc12 | inactive: 2.05 µM
13 | CC(C)=CCc1cc2c(cc1O)OC[C@H]1c3cc4c(cc3O[C@@H]21)OCO4 | inactive: 63.7 µM
14 | CCCCOC(=O)NC(=O)c1cn(CCCOC(=O)CCCCCCCCC(=O)OCCCn2cc(C(=O)NC(=O)OCCCC)c(=O)n(C)c2=O)c(=O)n(C)c1=O | inactive: > 100 µM
15 | O=C(CSc1n[nH]c(=O)[nH]c1=O)NNC(=O)c1cccc2nc3ccccc3nc12 | inactive: 29.9 µM
16 | CN(C(=O)c1ccc2c(c1)sc1c(=O)n(C)c3ccccc3c12)c1ccccc1 | inactive: > 100 µM
17 | O=C(O)/C=C/c1c[nH]c(=O)[nH]c1=O | inactive: > 250 µM
18 | CC(C)(C)OC(=O)NCC(c1c[nH]c2cc(Br)ccc12)c1c[nH]c2cc(Br)ccc12 | inactive: 17.1 µM
19 | CC(=O)c1c(O)c2c([nH]c1=O)CCCC2 | inactive: 24.1 µM
20 | O=C(O)c1cccc(CN2CCCCC2)c1 | inactive: > 100 µM
21 | C=CC[C@@]1(C#N)C[C@H](C[C@]2(C#N)C[C@H](CCl)OC(C)(C)O2)OC(C)(C)O1 | inactive: > 100 µM
22 | CCOc1ccc(/N=C(/NC(=O)c2ccccc2)SC)cc1 | inactive: > 100 µM

Row | Compound | GI50
23 | Cc1ccc2c(ccc3[nH]cc(CNc4ccc(NS(C)(=O)=O)cc4)c32)n1 | inactive: 30.7 µM
24 | Cc1cccc(C(C)C)c1NC(=O)C(=O)CC(=O)c1c(C)[n+]([O-])c2ccccc2[n+]1[O-] | inactive: 30.8 µM
25 | NCc1ccccc1C1CSCSC1 | inactive: > 100 µM
26 | CCOC(=O)C1N(S(=O)(=O)c2ccc(C)cc2)CCC12C(c1ccc(OC)c(OC)c1)=Nc1ccccc12 (configuration not stated) | inactive: > 100 µM
27 | CN(C)CCCN1c2ccccc2CCc2cccc([N+](=O)[O-])c21 | inactive: 24.2 µM
28 | C#CCn1c(=O)c(C#N)c(O)c2cc3ccccc3nc21 | inactive: > 31.6 µM
29 | C=C(C(=O)OC1C(CO)OC(OCC2CC[C@@H]3C[C@]4(OC(=O)C3=C)C(C)=CC(=O)C24)C(O)C1O)[C@@H]1CCC(CO)C2C(=O)C=C(C)[C@@]2(O)C1 (some centres not stated) | inactive: 7.28 µM
30 | Cn1c2ccc(C3=NCCN3)cc2c2cc(C3=NCCN3)ccc21 | inactive: 12.6 µM
31 | CN1CCN(C2CC(=O)c3c(Cl)sc(Cl)c32)CC1 (configuration not stated) | inactive: 26.4 µM
32 | Cc1ccc(Nc2[nH]c(=O)[nH]c(=O)c2C)cc1Cl | inactive: > 100 µM
33 | CC(NS(=O)(=O)c1ccc([N+](=O)[O-])cc1)C(=O)O (configuration not stated) | inactive: > 100 µM
34 | C1C2CC3CC1CC(c1nn4c(C56CC7CC(CC(C7)C5)C6)nnc4s1)(C2)C3 | inactive: > 100 µM
35 | O=C1CC2(CCN(Cc3ccccc3)CC2)C(=O)N1N1CCCCC1 | inactive: > 100 µM
36 | O=C1NC(=O)C(CCO)(c2ccccc2)C(=O)N1 | inactive: > 100 µM
37 | Cc1c(Cl)cccc1NC(=O)/C(Cl)=C(\Cl)C(=O)O | inactive: > 100 µM
38 | COC(=O)[C@]1(C)CCC[C@@]2(C)C1CC[C@]13C=C(C(C)C)[C@H](CC21)CC3(Cl)C#N (some centres not stated) | inactive: > 100 µM
39 | O=C(NC12CC3CC(CC(C3)C1)C2)C(=O)c1c[nH]c2ccc(Br)cc12 | inactive: 24.8 µM
40 | COc1ccc(NC(=O)C2=CC(=O)c3ccc(O)cc3C2=O)c(OC)c1 | inactive: > 100 µM
41 | COc1ccc(C(O)/C(=N/N)c2nc3ccc(Cl)cc3nc2O)cc1 (configuration not stated) | inactive: > 100 µM
42 | Cc1c2oc3c(C)cnc(C(=O)NC4C(=O)NC(C(C)C)C(=O)N5CCCC5C(=O)N(C)CC(=O)N(C)C(C(C)C)C(=O)OC4C)c3nc-2c(C(=O)NC2C(=O)NC(C(C)C)C(=O)N3CCCC3C(=O)N(C)CC(=O)N(C)C(C(C)C)C(=O)OC2C)c(N)c1=O (configuration not stated) | inactive: 5.73 µM
43 | Cc1coc2c1C(=O)C(=O)c1ccccc1-2 | inactive: 1.49 µM
44 | CC(=O)NC(CC(C)C)C(=O)NC(CC(C)C)C(=O)NC(C=O)CCCNC(=N)N (configuration not stated) | inactive: > 100 µM

Row | Compound | GI50
45 | Cc1ccccc1C1=[N+]([O-])c2ccccc2C1=O | inactive: 34.2 µM
46 | O=c1[nH]cc(/C=N\Nc2ccccc2)c(=O)[nH]1 | inactive: > 100 µM
47 | CC(=O)/C(=C/N1C(=O)CC(=O)NC1=S)C(=O)Nc1ccccc1C | inactive: 49.5 µM
48 | COC(CN(C(=O)c1ccccc1)C1CCC2(SCCS2)c2[nH]c3ccccc3c21)OC (configuration not stated) | inactive: 35.8 µM
49 | CC(C)C(=O)NCC[C@@H](CNC(=O)OC(C)(C)C)NC(=O)OC(C)(C)C | inactive: > 100 µM
50 | O=C1Nc2cccc(Cl)c2/C1=C\c1c(Cl)nc2sccn12 | inactive: > 100 µM
51 | CN(C)c1ccc2c(SCC(=O)OCC(=O)[C@@]3(O)CC[C@H]4[C@@H]5CCC6=CC(=O)C=C[C@]6(C)[C@H]5C(=O)C[C@@]43C)c3ccc(N(C)C)cc3nc2c1 | inactive: 19.9 µM
52 | O=c1oc2ccccc2n1P(=O)(n1c(=O)oc2ccccc21)n1c(=O)oc2ccccc21 | inactive: > 100 µM
53 | Cc1noc(C)c1C1=CCCCc2ccccc21 | inactive: > 100 µM
54 | C=CCN1C(=O)CC2[C@@H]3CCc4cc(O)ccc4C3CC[C@]2(C)C1=O (some centres not stated) | inactive: > 10 µM
55 | N#CC(/N=N/c1ccc(Cl)cc1)c1nc2ccccc2o1 (configuration not stated) | inactive: > 100 µM
56 | Cn1cc(-c2ccc(CCOC3CCCCO3)cc2)c2c(C#N)cccc21 (configuration not stated) | inactive: > 100 µM
57 | CC(C(=O)NCNC(=O)c1ccccc1)C(=O)NCc1ccccc1 (configuration not stated) | inactive: > 100 µM
58 | COC(=O)c1c2c(cc3c1CC1(C3)Cc3cc4c(c(C(C)=O)c3C1)CCC4)C=CC2 (configuration not stated) | inactive: > 31.6 µM
59 | COc1ccc(-c2nc3ccccc3c(=S)n2OC(C)=O)cc1 | inactive: 4.61 µM
60 | C=C1c2[nH]c3ccccc3c2CC(C(=O)O)N1C(O)c1ccc(S(=O)(=O)O)cc1 (configuration not stated) | inactive: > 100 µM
61 | COc1ccc(C2C(Cl)C(=O)N2NC(=O)Cc2ccccc2)cc1OC (configuration not stated) | inactive: > 100 µM
62 | CC[C@@]1(O)C(=O)OCc2c1cc1n(c2=O)Cc2c-1nc1ccccc1c2/C=N\NC(=O)C(N)Cc1ccc(O)cc1 (some centres not stated) | inactive: 3.56 µM
63 | CC(=O)OC1COC(Nc2nc(N)n(C)c(=O)c2N=O)C(OC(C)=O)C1OC(C)=O (configuration not stated) | inactive: > 10 µM
64 | CN(C)C(=O)Oc1ccc(-c2cn3cc(NC(=O)c4ccccc4)ccc3n2)cc1 | inactive: > 100 µM
65 | CC1=CC(=O)/C(=C/n2c(=S)[nH]c3ccc([N+](=O)[O-])cc32)C(=O)O1 | inactive: > 100 µM
66 | CC(C)N(C(=O)C12C3C4C5(C#N)C3C1(C#N)C5C42C#N)C(C)C (configuration not stated) | inactive: > 100 µM

Row | Compound | GI50
67 | CCOc1cc(C2SCC(=O)N2c2ccc3c(c2)Oc2c(Cl)c4c(c(Cl)c2=N3)Oc2cc(N3C(=O)CSC3c3ccc(O)c(OCC)c3)ccc2N=4)ccc1O (configuration not stated) | inactive: 55.3 µM
68 | Cc1ccc(/N=C2/C(c3ccccc3)=C(SC3=C(c4ccccc4)/C(=N/c4ccc(C)cc4)c4ccccc43)c3ccccc32)cc1 | inactive: 48 µM
69 | C#CCOC(=O)C(N)CC(N)=O (configuration not stated) | inactive: > 100 µM
70 | CCOC(OCC)(OCC)C(Br)CC (configuration not stated) | inactive: > 100 µM
71 | COC(=O)[C@@H]1C=CCN1S(=O)(=O)c1ccc(C)cc1 | inactive: > 100 µM
72 | CCCCN1C(=O)CC2[C@@H]3CCc4cc(OC(C)=O)ccc4C3CC[C@]2(C)C1=O (some centres not stated) | inactive: > 10 µM
73 | CCOS(=O)(=O)c1ccc(-c2c3nc(c(-c4ccc(S(=O)(=O)OCC)cc4)c4ccc([nH]4)c(-c4ccc(S(=O)(=O)OCC)cc4)c4nc(c(-c5ccc(S(=O)(=O)OCC)cc5)c5ccc2[nH]5)C=C4)C=C3)cc1 | inactive: 28.9 µM
74 | O=S(=O)(SC1=NCCN1)c1ccc2ccccc2c1 | inactive: 41.6 µM
75 | CC12CCC(/C(=N/c3ccc([N+](=O)[O-])cc3)C1=O)C2(C)C (configuration not stated) | inactive: 38.9 µM
76 | COc1cccc(N2C(=O)CSC2c2c[nH]c3ccccc23)c1 (configuration not stated) | inactive: > 100 µM
77 | COc1ccc(/C=C/C(=O)C(C)C)cc1 | inactive: 71.9 µM
78 | CSc1nc(-c2ccccc2)c2c(n1)-c1ccccc1CC2 | inactive: > 100 µM
79 | CC1=C(O)C(=O)C=C2C1=CC=C1[C@@]2(C)CC[C@@]2(C)C3C[C@@H](C)C(=O)[C@@H](O)[C@]3(C)CC[C@]12C (some centres not stated) | inactive: 13.8 µM
80 | CSc1ccc(/C=C2\N=C(c3ccccc3)N(/N=C3\C(=O)Nc4ccccc43)C2=O)cc1 | inactive: > 100 µM
81 | CC(NC(=O)Cc1ccccc1)NC(=O)C(C)C(=O)Nc1ccccc1 (configuration not stated) | inactive: > 100 µM
82 | COC(=O)Cn1cnc2c(Cl)nc(Nc3ccccc3)nc21 | inactive: 25.4 µM
83 | COc1cc(C2c3cc4c(cc3[C@@H](NCCN(C)C)C3COC(=O)[C@H]23)OCO4)cc(OC)c1O (some centres not stated) | inactive: 3.1 µM
84 | CN(C)c1ccc2c(c1)C(=O)N(OS(=O)(=O)c1ccc([N+](=O)[O-])cc1)C2=O | inactive: > 100 µM
85 | CC(C)C[C@H](NC(=O)[C@H](Cc1cccc2ccccc12)NC(=O)N1CCOCC1)B(O)O | active: < 0.0206 µM
86 | CCc1nc(N)nc(N)c1-c1ccc(NCCN)c([N+](=O)[O-])c1 | inactive: 8.13 µM
87 | CCc1ccc(NCc2cc(OC)c(OC)c(OC)c2)cc1 | inactive: 1.97 µM
